# Experimental data from PubChem BioAssay AID504444 (National Center for Advancing Translational Sciences (NCATS), 2011).
# About 7,500 (2.1%) of roughly 360,000 compounds were called active. Another 20% or so got no clear call; they are omitted. Calls follow the shape of the dose curve; as a rule, active = well fitted inhibition curve with a large enough effect; inconclusive = small, poorly fitted or top-dose-only effect, or effect the other way; inactive = flat fitted curve, though single readings scatter. The list shows a part of the results, in another mix than the full data. Some compounds were tested as several samples or in several runs, with calls that do not always agree.
# Assay: Nrf2 qHTS screen for inhibitors; also: nearly all actives have a fitted effect of over 60% in size
# Settings: A549 ARE-Fluc reporter, luciferase luminescence, 18-24 h; series mostly up to 46 µM; activity change, negative = inhibition: at the top concentration
# Outline: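 Quantitative HTS in A549 cells stably bearing an antioxidant response element-firefly luciferase construct. Inhibition of Nrf2-driven transcription was scored by luminescence after 18-24 h of compound exposure at 37 °C.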
# % is scaled to controls: 0 for no effect and ±100 for the full control effect; potency is read from the fitted curve at half-maximal effect.
Compound,"activity change, negative = inhibition",Potency
O=C(Nc1ccc(F)c(Cl)c1)C1CCCN(c2cnccn2)C1 (stereo not drawn),inactive: -22.2%,–
COc1ccc(NC(=O)CCN2C(=O)[C@@H]3[C@H](C2=O)[C@H]2C=C[C@@H]3C2)cc1,inactive: 3.44%,–
Cc1nc(NC(=O)c2ccccc2)sc1-c1csc(NCc2ccccc2)n1,–,active: 20.6 µM
CC(=O)n1cc([C@H]2C=C(C(=O)N3CCOCC3)O[C@@H](OCc3ccc(CO)cc3)C2)c2ccccc21,inactive: -9.09%,–
Cc1cccc(N2CCN(S(=O)(=O)c3ccc4c(c3)CC(=O)N4C)CC2)c1C,inactive: 7.36%,–
CCCC(=O)Nc1nnc(S(=O)(=O)N2CCCCCC2)s1,inactive: 11.1%,–
OCC[C@@H]1C[C@H](O)[C@@H](O)[C@]2(Cc3ccccc3CO2)O1,inactive: -9.22%,–
C[C@@H]1CCC[C@]2(O[C@@H](CCO)C[C@H](O)[C@H]2O)O1,inactive: 6.5%,–
Cc1ccc(C)c(OCCn2c(CCNC(=O)C3CCCCC3)nc3ccccc32)c1,inactive: 17%,–
C=CC[C@H](CC(=O)N(CCO)Cc1ccccc1)C(=O)NCCOC(=O)[C@H](CC=C)CC(=O)OC(C)(C)C,inactive: -12.6%,–
COc1ccc(CC(=O)Nc2cccc(-c3ccc4nncn4n3)c2)cc1OC,–,active: 20.6 µM
CSc1ccc(CCNC(=O)CN2C(=O)c3cccnc3Oc3ccc(C)cc32)cc1,inactive: -16.4%,–
COC(=O)c1cc2occc2n1Cc1cccc(C)c1,inactive: -1.97%,–
CC(=O)C[C@@H](O)CC(=O)[C@H]1OC(=O)[C@@H](C)C/C=C\Cc2ccccc21,inactive: 8.88%,–
COc1cccc(C2c3c(ncn(-c4ccccc4)c3=N)Oc3ccc4ccccc4c32)c1 (stereo not drawn),inactive: 5.57%,–
COC(=O)c1cc(-c2ccc(OC)c(OC)c2)c2c(=O)[nH]c(=O)n(C)c2n1,inactive: -23.6%,–
Cc1c(C)n(C)c2ccc(C(=O)N3CCN(c4ccccc4)CC3)cc12,inactive: -12.1%,–
O=C1N[C@@H](c2ccccc2)COC(=O)[C@H](Cc2ccc(F)cc2)C/C=C\C[C@H]1CC(=O)N(CCO)Cc1ccccc1,inactive: -3.31%,–
O=C(CNC(=O)C1CCCCC1)OC(C(=O)c1ccccc1)c1ccccc1 (stereo not drawn),inactive: -1.29%,–
COC(C[C@H]1O[C@@H]1[C@@H](O)[C@H](C)OCc1ccccc1)OC,inactive: -0.0905%,–
Cc1ccccc1NS(=O)(=O)c1nnc(NC(=O)c2ccccc2C)s1,inactive: -14.4%,–
Cc1csc(=Nc2c(C)n(C)n(-c3ccccc3)c2=O)n1Cc1ccccc1,inactive: -0.884%,–

Compound,"activity change, negative = inhibition",Potency
CCOC(=O)[C@@H]1[C@H]2COc3cc(OC)ccc3[C@H]2N2C(=O)N(c3ccc(C(F)(F)F)cc3)C(=O)[C@@]12C,inactive: 0.664%,–
C[C@H]1NC(=O)[C@@]2(C)[C@@H](c3ccccc3)[C@H]3COc4ccccc4[C@@H]3N2C1=O,inactive: -3.46%,–
Cc1cccc(Nc2nnc(SCC(O)=C(C#N)c3nc4ccccc4[nH]3)s2)c1,inactive: -10.6%,–
CC1CN(C(=O)c2ccc(S(=O)(=O)Nc3cccc(C(F)(F)F)c3)cc2)CC(C)O1 (stereo not drawn),–,active: 13 µM
COc1cc(NC(=O)Cn2c(=O)n(CC3CCCO3)c(=O)c3ccccc32)cc(OC)c1 (stereo not drawn),inactive: -0.0465%,–
CCOc1ccc(CCNc2nc3ccccc3n3c(C)nnc23)cc1OCC,inactive: 11.5%,–
Cc1cccc(C(=O)N[C@H](C(=O)Nc2cccc(S(=O)(=O)N3CCCC3)c2)C(C)C)c1,inactive: -11.9%,–
Cc1ccc(/C=C\c2nccc3c2[nH]c2ccccc23)cc1,inactive: 11.7%,–
Cc1ccc(/C=C2/SC(=S)N(CCCC(=O)Nc3ccc(O)cc3)C2=O)cc1,–,active: 9.2 µM
O=C(COc1ccccc1Br)NCCc1nc2ccccc2[nH]1,inactive: 3.86%,–
COc1cc(CC(=O)Nc2cccc(S(=O)(=O)N(C)c3ccccc3)c2)cc(OC)c1OC,–,active: 14.6 µM
COc1ccc(NCC(=O)Nc2cccc(S(=O)(=O)N3CCCC3)c2)cc1Cl,–,active: 18.4 µM
CCCc1ccc(-c2ccc(/C=C/C(=O)O)cc2)nc1,–,active: 0.0366 µM
Cc1cccc(N2CCN(C(=O)CSCc3c(C)noc3C)CC2)c1C,–,active: 1.84 µM
Fc1ccc(Nc2c(-c3ccco3)nc3ccccn23)cc1,inactive: 26.1% [at 9.27 µM],–
O=[N+]([O-])/C(C(Cl)=C(Cl)Cl)=C(/Sc1ccccc1)N1CCCCC1,inactive: -11.1%,–
C[C@@H]1CCC[C@@]2(O[C@H](CCO)C[C@@H](O)[C@@H]2O)O1,inactive: 11%,–
C[C@H]1c2cccc(O)c2C(O)=C2C(=O)[C@]3(O)C(O)=C(C(N)=O)C(=O)[C@@H](N(C)C)[C@@H]3[C@@H](O)[C@@H]21,inactive: -17.7%,–
COc1cc(C(CC(=O)Nc2ncccc2C)N2Cc3ccccc3C2=O)cc(OC)c1OC (stereo not drawn),inactive: -18.7%,–
CCOC(=O)C(=Cc1cc(=O)c(OC)co1)C(=O)OCC,–,active: 9.2 µM
O=C(c1ccco1)N1CCN(C(=O)c2cnn(-c3cccc(F)c3)c2C2CCNCC2)CC1,inactive: 1.41%,–
CC1(C)OC(c2ccccc2)=C/C(=C\C=N\NC(=O)c2ccncc2)O1,inactive: -8.78%,–

Compound,"activity change, negative = inhibition",Potency
COc1ccc(/C=C(/NC(=O)c2ccccc2)C(=O)N/N=C/c2sccc2C)cc1,inactive: 1.23%,–
COC(C[C@@H]1O[C@@H]1[C@H](O)[C@H](C)OCc1ccccc1)OC,inactive: 5.1%,–
O=C(Nc1ccccc1)C1=C[C@H](c2csc3ccccc23)C[C@H](OCc2ccc(CO)cc2)O1,inactive: -29.1%,–
COc1ccc(OC)c(CCNC(=O)Cn2nc(C)c3c(C)n(-c4ccc(C)cc4)nc3c2=O)c1,–,active: 10.3 µM
C=CC[C@@H](CC(=O)N[C@H](CO)Cc1ccccc1)C(=O)N[C@@H](COC(=O)[C@@H](CC=C)Cc1ccc(F)cc1)Cc1c[nH]c2ccccc12,inactive: 5.43%,–
COc1cc(/C=C(\C#N)c2nc3ccccc3[nH]2)ccc1OC(=O)c1ccco1,inactive: 26.3%,–
Cc1cc(/N=C/C=C2/N(C)c3ccccc3C2(C)C)n(CCC#N)n1,inactive: -21.1%,–
COc1ccc(C(=O)Nc2nnc(S(=O)(=O)N3CCOCC3)s2)cc1,inactive: 0.0485%,–
Cc1ccc(NC(=O)CCC(=O)N2CCOc3ccccc32)c(Cl)c1,inactive: -5.59%,–
Nc1cc2c3c(cccc3c1)C(=O)N(CCN1CCCC1)C2=O,–,active: 13 µM
CCOC(=O)c1c(C)nc2c(c1-c1ccccc1)C(=O)c1ccccc1-2,–,active: 13 µM
O=C(Nc1nnc(S(=O)(=O)N2CCOCC2)s1)c1ccccc1Cl,inactive: -0.551%,–
COCCCNc1nc2cc(OC)c(OC)cc2c2nc(-c3ccccc3)nn12,inactive: -4.74%,–
CC(C)(C)NC(=O)CSc1nc2ccc(NC(=O)CSc3nnnn3Cc3ccccc3)cc2s1,–,active: 8.2 µM
Cc1ccc(C(=O)N(C)CCOc2ccccc2)cc1S(=O)(=O)N1CCCCC1,–,active: 20.6 µM
O=C(N/C(=C\c1ccc([N+](=O)[O-])cc1)C(=O)N1CCOCC1)c1ccco1,inactive: 6.63%,–
CC1CCCCN1CCCNC(=O)Cn1ncc2c([nH]c3ccccc32)c1=O (stereo not drawn),inactive: 5.17%,–
Cc1cc(C)cc(N(CC(=O)NC2CCCCC2)C(=O)CCCC(=O)Nc2ccccn2)c1,–,active: 20.6 µM
Brc1cc(Br)c2ncnc(N3CCCCC3)c2c1,–,active: 25.9 µM
Cc1ccc(-c2ccc(=O)n(Cc3cc(C)ccc3C)n2)cc1,inactive: -18.3%,–
CCOC(=O)/C=c1/s/c(=C\c2c(OC)ccc3ccccc23)c(=O)n1CC(=O)NCC1CCCO1 (stereo not drawn),inactive: 1.97%,–
CCCCOc1ccccc1C(=O)N(Cc1ccc(C)o1)C1CCS(=O)(=O)C1 (stereo not drawn),inactive: 24.2%,–

Compound,"activity change, negative = inhibition",Potency
CCOc1ccc(NC(=O)Cn2c(=O)cc(C)c3c(C)nn(C)c32)cc1,–,active: 13 µM
Cc1ccccc1S(=O)(=O)Cc1ccc(C(=O)NCCc2ccccc2)o1,inactive: 4.58%,–
O=C1c2ccccc2C(=O)c2cc(S(=O)(=O)Nc3cccc4cccnc34)ccc21,–,active: 5.17 µM
C#C[C@]1(O)CC[C@H]2[C@@H]3CCC4=Cc5oncc5C[C@]4(C)[C@H]3CC[C@@]21C,inactive: 17.4%,–
O=C(Nc1ccccc1)C1=C[C@H](c2ccc(Br)cc2)C[C@H](OCc2ccc(CO)cc2)O1,inactive: -20.7%,–
CC(C)(C)[C@H]1COC(=O)[C@@H](NC(=O)OCC2c3ccccc3-c3ccccc32)C/C=C\C[C@@H](CC(=O)N[C@@H](CO)Cc2ccccc2)C(=O)N1,inactive: -11.1%,–
CC(C)(C)OC(=O)COc1cc(OCC(=O)OC(C)(C)C)c2c(=O)cc(-c3ccccc3)oc2c1,–,active: 23.1 µM
O=C(NC1CC1)C1=C[C@H](c2c[nH]c3ccccc23)C[C@H](OCc2ccc(CO)cc2)O1,inactive: 5.36%,–
COc1ccccc1C(=O)Nc1cc(-c2ccc(C)cc2)no1,inactive: 23.9%,–
O=C(Nc1ccc(S(=O)(=O)N2CCCCC2)cc1)c1ccc(CN2CCOCC2)cc1,–,active: 4.61 µM
CC(NC(=O)c1ccccc1Cl)C(=O)OCc1cn2cc(Cl)ccc2n1 (stereo not drawn),inactive: 10.2%,–
CCOC(=O)C1CCCN(S(=O)(=O)CCNC(=O)c2cccc(OC)c2)C1 (stereo not drawn),–,active: 18.4 µM
C[C@@H](C(=O)Nc1ccc2ccccc2c1)[C@@H]1C[C@@]1(C)[C@@H](NC(=O)OCc1ccccc1)c1ccccc1,inactive: 8.52%,–
Cn1c(=O)c(=O)n(C)c2cc(S(=O)(=O)N3CCN(c4ccccc4F)CC3)ccc21,inactive: -20.2%,–
O=S1(=O)[C@H]2CC3O[C@]2(C[C@@H]3c2ccc(F)cc2)CN1Cc1ccc(Cl)cc1,inactive: -12.3%,–
C[C@H]1CC[C@]2(O[C@@H](CCO)C[C@@H](O)[C@@H]2O)O1,inactive: -4.69%,–
N#C/C(=C(/O)CN1CCN(c2ccccc2F)CC1)c1nc(-c2ccccc2)cs1,inactive: -24.4%,–
O=C1NC(=S)N/C1=C/c1cccnc1,inactive: -22.2%,–
CCOc1ccc(NC(=O)NCCN2CCN(c3ccccc3F)CC2)cc1,inactive: -3.16%,–
CC(C)CCN(C(=O)c1csnn1)C(C(=O)NC1CCCC1)c1ccc(F)cc1 (stereo not drawn),–,active: 23.1 µM
C=CC[C@H](CC(=O)N[C@H](CO)Cc1ccccc1)C(=O)N[C@@H](COC(=O)[C@@H](CC=C)Cc1ccc(F)cc1)Cc1c[nH]c2ccccc12,inactive: -9.5%,–
C=CCC[C@@H](Cc1ccc(F)cc1)C(=O)OC[C@H](Cc1c[nH]c2ccccc12)NC(=O)[C@@H](CC=C)CC(=O)N[C@@H](CO)Cc1ccccc1,inactive: -14.1%,–
